About 6,200 (6.6%) of roughly 94,000 compounds were called active. Inconclusive means that the source gave no clear call. Such entries were picked first, then a sample of the others. Calls follow the shape of the dose curve; as a rule, active = well fitted inhibition curve with a large enough effect; inconclusive = small, poorly fitted or top-dose-only effect; inactive = flat fitted curve, though single readings scatter. Where the call is inconclusive, the potency comes from a doubtful curve fit.
Test: Cytotoxic Profiling in HEK 293 Cell Line of Diverse Libraries Using Quantitative High-Throughput Screening; also: nearly all actives have a fitted effect of over 60% in size
Conditions: HEK 293 viability, ATP luminescence (CellTiter-Glo), 48-72 h; series mostly up to 115 µM
How it was run: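 CellTiter-Glo luminescence (cellular ATP) was read after 48 or 72 hr of compound exposure at 37 degree Celsius. Cells were HEK 293 plated at 250 cells/well.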
Potency is read from the fitted curve at half-maximal effect; tags tell the direction and shape of the fitted curve.

Compound	Potency
Cc1noc2c(NCc3ccncc3)cc(-c3cccc(C(F)(F)F)c3)nc12	active: 70.8 µM
COCCn1ccc2c(C(=O)Nc3ccc4c(c3)C(=O)N3CCC[C@H]3C(=O)N4)cccc21	inconclusive: 89.1 µM [inhibitor, partial curve, poor fit]
CN1C[C@@H]2CCCN3CCC[C@@H]([C@H]23)[C@H]1CCCC(=O)NCCCN1CCc2ccccc2C1	inconclusive: 63.1 µM [inhibitor, partial curve, poor fit]
COc1ccc(S(=O)(=O)N2CCCC(Cc3noc(-c4ccccc4)n3)C2)cc1 (configuration not stated)	inconclusive: 31.6 µM [inhibitor, full curve]
Cc1noc(C)c1[S+](=O)([O-])N1CCN(C(=O)c2cccc(-c3ccccn3)c2)CC1	inconclusive: 56.2 µM [inhibitor, partial curve, poor fit]
O=C(Cn1cccc1-c1nc(-c2ccccc2)no1)Nc1ccc(F)cc1	inconclusive: 35.5 µM [inhibitor, full curve]
CS(=O)(=O)N1CCC2(CC1)CC(CC(=O)N1CCC(Cc3ccccc3)CC1)CCO2 (configuration not stated)	inconclusive: 89.1 µM [inhibitor, single point]
O=C1CC2(CCN(Cc3ccc(F)cc3)CC2)Oc2ccccc21	active: 50.1 µM
Cc1noc(C)c1CC(=O)N1CCCCCC1c1nc(C2CC2)no1 (configuration not stated)	inactive
COCC1CN(C2CCC2)CC12CCN(C(=O)c1ccc(F)cc1)CC2 (configuration not stated)	inconclusive: 89.1 µM [inhibitor, partial curve, poor fit]
CSc1ccc(-c2cccc(CN3CCC(NC(C)=O)CC3)c2)cc1	inconclusive: 50.1 µM [inhibitor, partial curve, poor fit]
O=C1CS(=O)(=O)C2(CCNCC2)N1	inactive
CCn1ccc(C(=O)N2C[C@@H](COc3ccccc3)[C@H](C(N)=O)C2)n1	inactive
O=C(c1ccc2ccccc2c1)N1C[C@@H]2C[C@H](C1)c1ccc(NS(=O)(=O)Cc3ccccc3)c(=O)n1C2	inconclusive: 50.1 µM [inhibitor, partial curve, poor fit]
O=C1Nc2ccccc2CC12CCN(Cc1ccsc1)CC2	inactive
Cc1cnc(C(=O)NC2C[C@H]3CC[C@@H](C2)N3C(=O)C2CCCCCC2)cn1 (some centres not stated)	inconclusive: 70.8 µM [inhibitor, partial curve, poor fit]
O=C(c1ccnc(-c2ccccc2-c2ccccc2)c1)N1CCCC1	inconclusive: 79.4 µM [inhibitor, partial curve]
CN(CCc1noc(C2CN(C(=O)c3ccncn3)C2)n1)C(=O)C1CC1	inactive
O=C(c1cccc(Cl)c1)N1CCC2(CC1)OCC(C(=O)N1CCCC1)N2C(=O)c1cccc(F)c1 (configuration not stated)	inconclusive: 7.08 µM [inhibitor, partial curve, poor fit]
O=C(NC1CCN(Cc2ccc(-c3ccsc3)cc2)C1)C1CCCC1 (configuration not stated)	inactive
C[S+](=O)([O-])NC1CCN(Cc2cccc(-c3ccc(F)c(F)c3)c2)CC1	inconclusive: 44.7 µM [inhibitor, partial curve, poor fit]
Cc1ccc(OC2(C(=O)O)CCN(C(=O)C3CCOCC3)CC2)cc1	inactive
Cn1cnc2cc(-c3ccc(F)cc3)cc(C(=O)NCCCn3ccnc3)c21	inactive

Compound	Potency
COc1ccccc1CC(=O)N1CCCN(c2cc(-c3ccccc3)[nH]n2)CC1	inconclusive: 28.2 µM [inhibitor, full curve]
CS(=O)(=O)N1CCCN(C(=O)CN2CCCCCC2)CCNC(=O)CC1c1ccccc1 (configuration not stated)	inactive
COc1ccc(CC(=O)N2CCC3(CC2)CN([S+](=O)([O-])c2ccccc2)CCO3)cc1	inactive
CC1(CNc2ccccc2)COc2ccc(C(=O)N3CC[S+](=O)([O-])CC3)cc2N1 (configuration not stated)	inactive
O=C(NCCCc1ccccc1)c1ccc2nccn2c1	inconclusive: 100 µM [inhibitor, partial curve, poor fit]
O=C(NC1C[C@H]2CC[C@@H](C1)N2C(=O)C1CCCC1)c1ccc(F)cc1 (some centres not stated)	inactive
COCC1CN(C(C)=O)CC12CCN(C(=O)c1cccc(Cl)c1)CC2 (configuration not stated)	inactive
C[C@@H](O)CNc1nccc(C2(c3ccccc3Cl)CCNCC2)n1	inactive
COc1cccc(OC2CN(C(=O)c3[nH]c4c(C)cc(C)cc4c3C)C2)c1	inconclusive: 89.1 µM [inhibitor, single point]
O=S(=O)(c1cccc(F)c1)N1CCC2(CC1)CC(Cc1nc(C3CC3)no1)CCO2 (configuration not stated)	active: 44.7 µM
O=C(NC1CCCCCC1)c1ccc2nc(-c3ccncc3)oc2c1	inactive
COc1ccc(OCC2(C)COc3ccc(C(=O)NCCc4ccccc4)cc3N2)cc1 (configuration not stated)	inconclusive: 39.8 µM [inhibitor, full curve]
COc1cccc(CNC(=O)c2cc(-c3ccsc3)c3nncn3n2)c1	inconclusive: 50.1 µM [inhibitor, partial curve, poor fit]
O=C(c1ccccc1F)N1CCC(Cc2nc(-c3ccccc3)n[nH]2)CC1	inconclusive: 79.4 µM [inhibitor, single point]
CC(=O)N1CCN(c2nc3c(s2)CC(C(=O)Nc2cccc(C(C)(C)C)c2)CC3)CC1 (configuration not stated)	inconclusive: 22.4 µM [inhibitor, full curve, poor fit]
O=C1c2cc(N3CCOCC3)nc(-c3ccccc3F)c2CN1CC(F)(F)F	inconclusive: 70.8 µM [inhibitor, partial curve, poor fit]
COc1ccc(-c2cnc3n[nH]c(-c4sccc4C)c3n2)cc1	inconclusive: 89.1 µM [inhibitor, partial curve, poor fit]
CC(=O)Nc1ccccc1-c1c(C)nn2c1N(C(=O)Cc1ccccc1)CCC2	inactive
O=C(CCC1CCN(C(=O)c2ccccn2)CC1)N1CCC(Cc2ccccc2)CC1	inconclusive: 44.7 µM [inhibitor, partial curve, poor fit]
O=C(c1cccc(Cl)c1)N1CCC(C(=O)N2CCCC(c3nc4ncccc4[nH]3)C2)CC1 (configuration not stated)	inactive
CC(=O)NCc1nnc2n1C(C(=O)NCc1ccc(Cl)cc1)CC2 (configuration not stated)	inactive
Cc1noc(C)c1-c1cc2cc(CN(C)C)oc2c(Nc2ccn(C)n2)n1	inconclusive: 100 µM [inhibitor, partial curve, poor fit]
CC1(C)N=C(c2ccccc2)C(=O)N1CC(=O)NC1CCCCC1	inactive

Compound	Potency
O=C(Cc1ccccc1)N1CCC(Cc2nc(-c3ccccc3)n[nH]2)CC1	inconclusive: 50.1 µM [inhibitor, partial curve, poor fit]
Cc1ccc(-c2ccc3nnc(CNC(=O)c4cccc5[nH]ccc45)n3n2)cc1C	inconclusive: 39.8 µM [inhibitor, full curve, poor fit]
O=C(CN1CCCC1)N[C@H]1CC[C@H](Nc2nccc(-c3cccnc3)n2)C1	active: 44.7 µM
COCCC(=O)N1CCCN(S(C)(=O)=O)c2ccccc21	inactive
COCCC(=O)N1CC2(CCCCC2)CC1COc1ccc(OC)cc1 (configuration not stated)	inconclusive: 56.2 µM [inhibitor, partial curve, poor fit]
Cc1cnc(C2CCOCC2)n1CC1CCN(C2CCCCCC2)CC1	inconclusive: 7.08 µM [inhibitor, full curve, poor fit]
COCCN1Cc2ccc(Nc3ccc(OC)cc3)nc2C(C)(C(=O)NC2COC2)C1 (configuration not stated)	inconclusive: 112 µM [inhibitor, partial curve, poor fit]
COc1cccc(CC(=O)N2CCCn3nc(C)c(-c4ccccc4-c4ccccc4)c32)c1	inconclusive: 28.2 µM [inhibitor, full curve, poor fit]
Cc1ccc(C(=O)N2CCN(C(=O)c3nnn4c3COC(c3ccccc3)C4)CC2)cc1 (configuration not stated)	inconclusive: 44.7 µM [inhibitor, partial curve, poor fit]
COc1ccccc1C(=O)N1CCN(C(=O)c2nnn3c2COC(c2ccc(C)cc2)C3)CC1 (configuration not stated)	inconclusive: 56.2 µM [inhibitor, partial curve, poor fit]
COc1cccc(C(=O)NCCc2nc(C3CC3)nn2Cc2ccccc2)c1	inconclusive: 20 µM [inhibitor, full curve, poor fit]
COc1ccc(-c2cccc(C(=O)NCc3ccc(C(F)(F)F)cc3)c2)nn1	active: 39.8 µM
CCCCCC(=O)Nc1ccc([C@H]2OCC(=O)N(Cc3nccn3C)[C@@H]2CO)cc1	inactive
O=C(NCc1ccncc1)C1CCN(C(=O)N2CC3CC(C2)[C@H]2CCCC(=O)N2C3)CC1 (some centres not stated)	inactive
CN1C[C@@H]2CCCN3CCC[C@@H]([C@H]23)[C@H]1CCCC(=O)N1CCCCC1	inactive
COc1ccc(-c2cc(C(=O)NCCCc3ccccc3)c3cnn(C)c3n2)cc1	inconclusive: 39.8 µM [inhibitor, partial curve, poor fit]
O=C(CC1CCCCC1)NCCc1noc(C2CC2)n1	inactive
COCCOCc1nc(C2CCCN2C(=O)Nc2ccccc2F)no1 (configuration not stated)	inactive
Cn1cc(CN2C[C@@H](F)[C@@H](OCc3nc4ccccc4[nH]3)C2)c2ccccc21	active: 100 µM
O=C(NCc1cccnc1)c1cc(-c2cnccc2Cl)c2cccn2n1	inconclusive: 89.1 µM [inhibitor, partial curve, poor fit]
CCN1c2cc(C(=O)NCc3cc(F)ccc3F)ccc2C(=O)N2CCCCCC21 (configuration not stated)	inconclusive: 22.4 µM [inhibitor, partial curve, poor fit]

— PubChem BioAssay AID1345083 (National Center for Advancing Translational Sciences (NCATS), 2018)
